The supplement of paper PMC3334620
In all, about 33,000 sequences were measured (“E-score (-0.5 to 0.5)”: median about -0.04, highest 2% from about 0.36 on). The list shows a part of the results.

The sequences below were run against T1, Hmlalpha2 (UniProt P0CY09) (assay: PBM E-score (8-mer binding enrichment) (E-score (-0.5 to 0.5)); higher = stronger / more preferred TF binding; most listed sequences are background and not binding sites). Details: protein concentration: 200 nM; construct: GST-full length.
T1 sequence: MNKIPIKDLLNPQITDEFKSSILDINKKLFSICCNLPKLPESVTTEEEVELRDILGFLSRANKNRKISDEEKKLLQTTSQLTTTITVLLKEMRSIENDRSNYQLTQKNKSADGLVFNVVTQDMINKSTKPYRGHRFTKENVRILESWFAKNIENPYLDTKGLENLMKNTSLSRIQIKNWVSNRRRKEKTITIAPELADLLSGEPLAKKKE
Method in brief: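 E-scores (a modified Wilcoxon-Mann-Whitney statistic) were assigned by the Universal PBM Analysis Suite to every ungapped eight-base word pooled with its reverse complement. The input came from universal all-10-mer Agilent arrays made double-stranded by primer extension and probed with GST-tagged yeast transcription factors at about 100-200 nM. Fluorescent anti-GST detected bound protein, and masliner normalised the scans.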

Row | Sequence | PBM E-score
1 | ACGGAGGC | -0.273
2 | CGAGTCGC | -0.28
3 | AAGCGCAT | -0.04
4 | GACAACAC | 0.319
5 | ACCAATTA | 0.195
6 | TAGTACGA | 0.0711
7 | TATAGTAA | 0.234
8 | CCCCCCTC | -0.375
9 | ACCACCAA | -0.235
10 | ATGTGAAA | 0.222
11 | GCTGTAGA | 0.193
12 | CTCAGTGA | -0.203
13 | AAGTGCTC | -0.268
14 | ACAATTCT | 0.156
15 | ATGATCAG | -0.0692
16 | TCGCATCA | -0.126
17 | GAGTATCA | 0.00173
18 | CAGTAGTA | 0.135
19 | CATAGACC | -0.163
20 | GAGTATCC | -0.135
21 | ATGCTGTA | 0.136
22 | GGGTTCAC | -0.153
23 | GGGATCTA | -0.168
24 | CTAACAGC | -0.129
25 | AACGCAGT | 0.111

Row | Sequence | PBM E-score
26 | TCGTCCCA | -0.0293
27 | ATAGCCGA | -0.0737
28 | ATTTGTAA | 0.344
29 | AATATATA | 0.258
30 | CAGCCCTA | 0.0886
31 | AGGACCCG | -0.23
32 | ATTTCGTG | 0.0895
33 | GAACCTTA | -0.137
34 | AGTAATGG | 0.124
35 | ATGGTTGG | -0.184
36 | AATCGGAA | -0.00222
37 | AGCTTCCT | 0.0723
38 | AAAACCGT | 0.226
39 | GGGGAGGA | -0.38
40 | CTTCTACA | 0.32
41 | CGCCAACA | 0.0904
42 | CTTGTAAA | 0.452
43 | GCAGGGAA | -0.18
44 | AGTTCGCG | -0.147
45 | ATAAAGCG | 0.0354
46 | CAGGGTGC | -0.308
47 | AAGCAACA | 0.151
48 | GATGAGAA | 0.0348
49 | CCGTCCGC | -0.332
50 | AGAGGTTG | -0.0711

Row | Sequence | PBM E-score
51 | GTACCATA | -0.00836
52 | AAATAGAC | -0.0652
53 | CGTACGTC | 0.197
54 | GTCCAAAC | -0.108
55 | AACAGAGG | 0.0102
56 | ACTCACAC | 0.00918
57 | GGCTCCAC | -0.259
58 | GCGAGGAA | -0.0112
59 | GACGTCCA | -0.0712
60 | CCAGGACA | -0.0628
61 | TATGTTGA | 0.364
62 | ACGCAATA | 0.325
63 | GATGGTCC | -0.0351
64 | GCTCGAAC | 0.0912
65 | ACACTTAC | 0.209
66 | AGTCAAGG | -0.124
67 | CGGTTAGA | -0.23
68 | CCCCGAGG | -0.234
69 | CATGAAGC | 0.102
70 | AACGCCCG | -0.095
71 | ACATTGCA | 0.239
72 | ACGTTCTG | -0.00331
73 | CTAGAACC | -0.163
74 | ATCCGCAT | 0.0455
75 | GGGCCGAA | -0.287

Row | Sequence | PBM E-score
76 | CGATCTCA | -0.0804
77 | AAACTTGT | 0.213
78 | AAACACTA | 0.257
79 | GTATACCA | 0.0822
80 | AAAAGGGA | -0.183
81 | CTCCCCGC | -0.0707
82 | AGGAAGTA | -0.011
83 | AAAAAGAT | -0.00444
84 | CCTAACGA | -0.0891
85 | AACATGCG | 0.399
86 | ACTAGAAG | -0.0727
87 | GTTCCGTA | 0.164
88 | AGGATGCG | -0.148
89 | GACGCGTC | 0.0547
90 | CGGCTAAA | -0.0334
91 | AGAATTCG | -0.042
92 | TGTTTGAA | 0.22
93 | GGGGGTCA | -0.353
94 | ACGTGGTG | 0.0942
95 | CGCGTTGC | 0.273
96 | CTTGACCA | -0.0171
97 | AGTTTTAC | 0.294
98 | ATGGCACC | -0.28
99 | CGGGTGCC | -0.166
100 | CAGTTGAA | -0.0594

Row | Sequence | PBM E-score
101 | ACGCATCA | 0.19
102 | ACTGTAAC | 0.102
103 | CGGTCAAG | -0.208
104 | AAGTAGCG | -0.0783
105 | CAAGTTCC | -0.0347
106 | AGATAGAG | -0.0305
107 | GAACCAGA | -0.0935
108 | GGCCCCGA | -0.109
109 | GCATCGGC | -0.132
110 | GGCGGAGA | -0.0452
111 | GTCTAAGA | 0.0813
112 | GTAGGTTA | 0.107
113 | GCGTACCC | -0.151
114 | ACCTTTAT | -0.105
115 | GTAAGAGA | 0.153
116 | CTGGGTTC | -0.0163
117 | AGGAGACA | 0.00781
118 | CAATTCGC | 0.103
119 | CACTGCGA | -0.0249
120 | ACGTGCTA | 0.212
121 | CTTCTCAA | -0.134
122 | GTAATGAC | 0.276
123 | CTCTATTC | -0.172
124 | GTTTTACA | 0.408
125 | ATCCACGC | -0.201

Row | Sequence | PBM E-score
126 | CGATATAC | 0.0862
127 | GGTCCCTA | -0.0695
128 | ACCGGAGA | -0.308
129 | CTGTCGTA | 0.0261
130 | GCCCTCAA | -0.242
131 | CGTAGAGA | 0.0605
132 | CTCGCCGC | -0.122
133 | AACCCGAG | -0.0715
134 | CTCTAGCC | -0.0817
135 | ATCCAGGC | -0.297
136 | GGAAGCCC | -0.268
137 | CCGAAGAC | -0.199
138 | CGCGTTGA | 0.301
139 | CTCCTGGC | -0.199
140 | AACTCTCA | -0.0285
141 | AGTAAGAT | 0.0594
142 | GACTGGAA | -0.203
143 | CCCACAAA | 0.0047
144 | CGGAGAAG | -0.358
145 | CTTACGGA | -0.216
146 | AAATAGTG | 0.21
147 | CATCAAAC | -0.0104
148 | GGGTTGGA | -0.133
149 | CAGTGGGA | -0.193
150 | CCAGTCGA | -0.139

Row | Sequence | PBM E-score
151 | AATCGGAT | 0.0614
152 | GGGAACGA | -0.151
153 | AGTCTTCG | -0.0117
154 | GATCTACA | 0.345
155 | ACAGACCT | 0.00306
156 | AGTACCCG | 0.0456
157 | ACGGTTGA | -0.0172
158 | CAAAGGTC | -0.233
159 | AAAATTCA | 0.2
160 | AGGGCAGA | -0.21
161 | ACCCTGGA | -0.235
162 | TCTACCAA | 0.066
163 | ATCGAGCG | -0.0213
164 | CCCTGTCA | -0.0577
165 | CGAACCAG | 0.0425
166 | GGTTGTTA | 0.294
167 | AATGCAAT | -0.07
168 | TAAGTATA | 0.239
169 | ATCACCGA | -0.0274
170 | TCCCCAGA | -0.194
171 | ATAGACCA | -0.255
172 | GCGAGTAA | 0.16
